From PubChem BioAssay AID1460 (National Center for Advancing Translational Sciences (NCATS), 2008)
Values joined by “and” are separate entries in the source; they are usually repeats but may differ in a detail not shown here. Equal entries are not always repeated. The campaign covered roughly 270,000 compounds. About 5,800 (2.1%) were called active. The inconclusive results got no clear call from the source; some entries with a clear call stand among them for comparison. Calls follow the shape of the dose curve; as a rule, active = well fitted inhibition curve with a large enough effect; inconclusive = small, poorly fitted or top-dose-only effect; inactive = flat fitted curve, though single readings scatter. Where the call is inconclusive, the potency comes from a doubtful curve fit.

What follows are molecules tested against Microtubule-associated protein tau (Homo sapiens) (UniProt P10636) (assay: qHTS for Inhibitors of Tau Fibril Formation, Thioflavin T Binding). Conditions: recombinant tau K18 P301L, heparin-induced fibrillization, ThT fluorescence; series mostly up to 57.4 µM.
UniProt P10636, sequence (P10636 whole entry, looked up): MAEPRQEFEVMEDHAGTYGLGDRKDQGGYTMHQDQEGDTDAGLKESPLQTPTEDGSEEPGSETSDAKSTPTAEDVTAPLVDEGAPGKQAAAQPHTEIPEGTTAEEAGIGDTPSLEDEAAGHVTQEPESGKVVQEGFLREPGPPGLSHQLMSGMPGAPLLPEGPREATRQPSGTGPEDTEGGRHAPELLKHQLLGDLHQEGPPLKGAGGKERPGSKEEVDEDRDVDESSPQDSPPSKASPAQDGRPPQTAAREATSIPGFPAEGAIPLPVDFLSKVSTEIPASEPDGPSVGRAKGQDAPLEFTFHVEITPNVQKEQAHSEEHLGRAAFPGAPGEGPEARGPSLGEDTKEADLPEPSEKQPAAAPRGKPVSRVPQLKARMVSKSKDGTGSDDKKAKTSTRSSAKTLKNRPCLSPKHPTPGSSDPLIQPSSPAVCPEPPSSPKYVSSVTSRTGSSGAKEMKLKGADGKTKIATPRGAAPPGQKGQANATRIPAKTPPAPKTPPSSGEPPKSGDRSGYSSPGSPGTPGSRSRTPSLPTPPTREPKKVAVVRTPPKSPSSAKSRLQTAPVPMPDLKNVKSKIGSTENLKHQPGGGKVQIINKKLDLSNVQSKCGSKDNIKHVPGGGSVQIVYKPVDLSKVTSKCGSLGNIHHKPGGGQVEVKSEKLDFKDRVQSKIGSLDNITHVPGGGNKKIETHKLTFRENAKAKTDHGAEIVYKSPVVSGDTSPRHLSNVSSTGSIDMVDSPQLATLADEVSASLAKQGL
Method in brief: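 ThT emission at 510 nm, taken 1 hr after adding 30 uM dye, quantifies aggregates formed when 20 uM heparin acts on human tau K18 P301L for 6 hr at 37 C.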
Also: nearly all actives have a fitted effect of over 55% in size.
Potency is read from the fitted curve at half-maximal effect; tags tell the direction and shape of the fitted curve.

| Structure (SMILES) | Potency |
| --- | --- |
| O=C1C(=O)c2ccccc2-c2ccccc21 | active: 3.16 µM |
| CC(C)=CCCC1(C)C=Cc2c(O)c3c(c(CC=C(C)C)c2O1)OC12C(=CC4CC1C(C)(C)OC2(C/C=C(/C)C(=O)O)C4O)C3=O (centres undefined) | active: 17.8 µM |
| CCOCCCn1c(N)c(C(=O)Nc2sc3c(c2C(=O)OC)CCCC3)c2nc3ccccc3nc21 | inconclusive: 39.8 µM [inhibitor, single point] |
| C=C1C(=O)O[C@@H]2C[C@@H](C)[C@@H]3C=CC(=O)[C@@]3(C)[C@@H](OC(=O)CC(=O)O[C@H]3[C@@H]4C(=C)C(=O)O[C@@H]4C[C@@H](C)[C@@H]4C=CC(=O)[C@]43C)[C@H]12 | active: 2.82 µM |
| CCCN1C[C@H](C)N([C@H](c2ccc(C(=O)N(CC)CC)cc2)c2cccc(OC)c2)C[C@H]1C | inactive |
| O=c1c2ccccc2nc(-c2ccco2)n1-c1ccncc1 | inactive |
| CCCCC1C(=O)NC(=S)NC1=O | inconclusive: 28.2 µM [inhibitor, partial curve] |
| Cc1c(CCC(=O)N2CCCCC2)c(=O)oc2cc3occ(C(C)(C)C)c3cc12 | inconclusive: 14.1 µM [inhibitor, partial curve] |
| COc1ccc2nc(NC(=O)CCc3nc(C4=CCN(C)CC4)no3)sc2c1 | inconclusive: 10 µM [inhibitor, partial curve] |
| Cc1ccc(C)c(Cn2c(C(=O)O)c(C=O)c3ccccc32)c1 | inactive |
| CN(C)C(=S)SSC(=S)N(C)C | inconclusive: 2.82 µM [inhibitor, full curve] and inconclusive: 1 µM [inhibitor, full curve] |
| Cc1cc(C=C2C(=O)NC(=S)NC2=O)c(C)n1-c1ccc2c(c1)OCO2 | active: 14.1 µM |
| O=C1NC(=O)C(=O)C(=O)N1 | active: 2.51 µM |
| Cn1c(=O)c2c(nc(N/N=C/c3c(O)n(C4CCCCC4)c(=S)[nH]c3=O)n2C)n(C)c1=O | active: 15.8 µM |
| COc1cc(OC)c(/C=C2/C(=O)Nc3ccccc32)c(OC)c1 | inconclusive: 14.1 µM [inhibitor, partial curve] |
| O=c1[nH]c(=O)n(Cc2ccccc2)c(O)c1/C=C1\C=Nc2ccccc21 | inconclusive: 17.8 µM [inhibitor, partial curve] |
| CCC(=Nc1ccc(OC)cc1OC)c1c(O)n(C)c(=O)n(C)c1=O | inconclusive: 17.8 µM [inhibitor, single point] |
| CCc1ccc(N2C(=O)NC(=O)/C(=C\c3cccn3CCOc3ccc(C(C)C)cc3)C2=O)cc1 | inconclusive: 3.55 µM [inhibitor, full curve] |
| Cc1ccc(OCC(=O)N2CCN(CC3CC4C=CC3C4)CC2)cc1 (centres undefined) | inconclusive: 20 µM [inhibitor, partial curve, poor fit] |
| CCN1C(=O)C(=Cc2ccc(N3CCOCC3)o2)C(=O)N(CC)C1=S | active: 17.8 µM |
| O=c1[nH]c(=S)[nH]c(O)c1N=Nc1ccc(SC(F)F)cc1 | active: 3.55 µM |
| CCN1C(=O)C(=Cc2cc(C)n(C3CC3)c2C)C(=O)N(CC)C1=S | inconclusive: 28.2 µM [inhibitor, partial curve] |

| Structure (SMILES) | Potency |
| --- | --- |
| C=CCN1C(=O)NC(=O)/C(=C\c2ccc(-c3ccccc3[N+](=O)[O-])o2)C1=O | inconclusive: 8.91 µM [inhibitor, full curve] |
| O=c1[nH]c(=O)n(CCC2=CCCCC2)c(O)c1/C=N/Nc1ccccc1 | inactive |
| CN1CCc2nc(SC(C(=O)O)c3ccccc3)c(C#N)c(-c3cccs3)c2C1 (centres undefined) | inconclusive: 11.2 µM [inhibitor, partial curve] |
| CCCN(CCC)[C@@H]1CCc2c(OC)cccc2[C@@H]1C | inactive |
| O=C(NCC(c1cccnc1)N1CCOCC1)Oc1ccccc1 (centres undefined) | inconclusive: 25.1 µM [inhibitor, single point] |
| CC(=O)Nc1ccc(OCCF)cc1 | inactive |
| CSc1nc2ccccc2n1C(=O)Oc1ccccc1 | inconclusive: 25.1 µM [inhibitor, partial curve] |
| c1ccc(CC(NCc2ccco2)c2ccccc2)cc1 (centres undefined) | inconclusive: 15.8 µM [inhibitor, partial curve] |
| CCc1ccc(N2C(=O)NC(=O)C(Cc3ccc(OC)cc3OC)C2=O)cc1 (centres undefined) | inconclusive: 35.5 µM [inhibitor, single point] |
| Cc1ccc(C(=O)N[C@@H](C)CN2C3=NC[C@H](Cc4ccccc4)N3C[C@H]2Cc2ccc(O)cc2)cc1Br | inconclusive: 44.7 µM [inhibitor, single point] |
| CCCCNC(=O)c1c(N)n(Cc2ccc3c(c2)OCO3)c2nc3ccccc3nc12 | inconclusive: 22.4 µM [inhibitor, partial curve] |
| CC/C(=N\Nc1cccc2ccccc12)c1c(O)[nH]c(=O)[nH]c1=O | active: 28.2 µM |
| CN1C(=O)/C(=C/c2ccc(N3CCCCCC3)o2)C(=O)NC1=S | active: 14.1 µM |
| CCOc1ccc(N2C(=O)NC(=O)/C(=C/c3cnc(SC)nc3)C2=O)cc1 | inconclusive: 8.91 µM [inhibitor, partial curve] |
| C=CCN=C(SCC(=O)c1ccc(Cl)cc1)c1c(O)n(C)c(=O)n(C)c1=O | inconclusive: 17.8 µM [inhibitor, partial curve] |
| COc1cccc(C(C#N)N2CCCCC2)c1O (centres undefined) | inconclusive: 15.8 µM [inhibitor, partial curve] |
| O=C(COc1ccc(Br)cc1)Nc1ccc(Cl)cc1C(=O)c1ccccc1 | inactive |
| CCOC(=O)c1[nH]ncc1CN1CCCC(C(=O)c2cccc(Cl)c2)C1 (centres undefined) | inactive |
| O=C(N/N=C/c1cccnc1)c1ccc(NC(=O)C(c2ccccc2)c2ccccc2)cc1 | inconclusive: 1.58 µM [activator, partial curve] |
| Cc1ccc(NC(=O)c2cn(CCC#N)nc2-c2ccc3c(c2)OCCO3)c([N+](=O)[O-])c1 | inconclusive: 39.8 µM [inhibitor, single point] |
| N#CC(C#N)=Cc1ccc(C=C(C#N)C#N)cc1 | active: 20 µM |
| CC1=NN(c2ccccc2)C(=O)/C1=C/c1c(O)[nH]c(=O)[nH]c1=O | inconclusive: 17.8 µM [inhibitor, partial curve] |
